{"source": "the supplement of paper PMC8183993", "note": "Where “and” joins values, the source holds several entries; their conditions need not be identical. Identical values can stand only once. Counter-ions that a name gives are not always drawn. ± gives the standard deviation of the averaged measurements. Over roughly 3,200 compounds, “nuclei count (viability) relative to DMSO” has its median near 99; the lowest 2% begin near 16. The list shows a part of the results.", "data": [{"system": "U2OS", "experiment": "nuclei count (viability) relative to DMSO (% of DMSO); higher = more viable cells", "details": "10 µM; 24 h", "experimental": "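Primary image-based screen in U2OS cells: compounds at 10 uM for 24 h, then a 1 h o-propargyl-puromycin (OPP) pulse, click labelling, and high-throughput microscopy. Mean cytoplasmic OPP intensity and nuclei count were normalised to DMSO wells within each plate (DMSO = 100) and averaged over triplicate plates.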", "values": [{"smiles": "Cc1cncc(CN2CCC(=C3c4ccc(Cl)cc4CCc4cccnc43)CC2)c1", "note": "[Rupatadine Fumarate]", "nuclei count": 97.7}, {"smiles": "CC(C)Cc1ccc([C@H](C)C(=O)O)cc1", "note": "[S-(+)-ibuprofen]", "nuclei count": 103}, {"smiles": "CC(=O)Oc1cc(C(F)(F)F)ccc1C(=O)O", "note": "[Triflusal]", "nuclei count": 95.4}, {"smiles": "CC(C)C(=O)SCCCCCCC(=O)Nc1nc(-c2ccccc2)cs1", "nuclei count": 45.8}, {"smiles": "CCCCCCCC/C=C\\CCCCCCCC(=O)NCc1ccc(O)c(OC)c1", "note": "[Olvanil]", "nuclei count": 98.1}, {"smiles": "CNC(=O)c1ccc2cc([C@@]3(O)CCn4cncc43)ccc2c1", "note": "[TAK-700 (Orteronel)]", "nuclei count": 102}, {"smiles": "N=c1ccn2c(n1)O[C@H]1[C@H](O)[C@@H](CO)O[C@H]12", "note": "[Cyclocytidine HCl]", "nuclei count": 59.5}, {"smiles": "COc1ccc(-c2nc(C(=O)N3CCN(C)CC3)sc2-c2ccc(OC)cc2)cc1", "nuclei count": 99.4}, {"smiles": "C[C@@H]1CC(=O)NN=C1c1ccc(NN=C(C#N)C#N)cc1", "note": "[Levosimendan]", "nuclei count": 83.3}, {"smiles": "C[C@@H](c1ncncc1F)[C@](O)(Cn1cncn1)c1ccc(F)cc1F", "note": "[Voriconazole]", "nuclei count": 105}, {"smiles": "Cc1nn(C)c2nc(NNC(=O)Nc3cc(Cl)nc(Cl)c3)cc(C(C)C)c12", "nuclei count": 106}, {"smiles": "O=C(O)Cc1ccccc1Nc1c(Cl)cccc1Cl", "note": "[Diclofenac Diethylamine]", "nuclei count": 103}, {"smiles": "O=C(O)Cc1ccccc1Nc1c(Cl)cccc1Cl", "note": "[Diclofenac sodium]", "nuclei count": 104}, {"smiles": "Cc1c(NC(=O)c2ccc(C(C)(C)C)cc2)cccc1-c1cn(C)c(=O)c(Nc2ccc(C(=O)N3CCOCC3)cc2)n1", "nuclei count": 96.5}, {"smiles": "CN1CCN(CCCN2c3ccccc3Sc3ccc(S(=O)(=O)N(C)C)cc32)CC1", "note": "[Thioproperazine dimesylate]", "nuclei count": 101}, {"smiles": "CN[C@@H](C)[C@H]1[C@H](O)C[C@@]2(C)[C@@H]3CC[C@H]4C(C)(C)[C@@H](NC)CC[C@@]45C[C@@]35CC[C@]12C", "note": "[Cyclovirobuxin D (Bebuxine)]", "nuclei count": 95.7}, {"smiles": "N#Cc1ccc(NCCNCC(=O)N2CCC[C@H]2C#N)nc1", "note": "[NVP DPP 728 dihydrochloride]", "nuclei count": 91}, {"smiles": "CN(C)c1nc(N)c(C(=O)Nc2cccnc2)nc1Cl", "note": "[ACDPP hydrochloride]", "nuclei count": 104}, {"smiles": "COc1cc2c(cc1O)CC[C@@H]1[C@@H]2CC[C@]2(C)[C@@H](O)CC[C@@H]12", "note": "[2-Methoxyestradiol]", "nuclei count": 34.7}, {"smiles": "COC(=O)C1=C(C)NC(C)=C(C(=O)OC)C1c1ccccc1[N+](=O)[O-]", "note": "[Nifedipine]", "nuclei count": "92.5 ± 10"}, {"smiles": "Cc1cc(NC(=O)C2=C(O)c3ccccc3S(=O)(=O)N2C)no1", "note": "[Isoxicam]", "nuclei count": 101}, {"smiles": "Cc1cc(C(C)(C)CC(C)(C)C)ccc1OCCOCC[N+](C)(C)Cc1ccccc1", "note": "[Methyl benzethonium chloride]", "nuclei count": 71.2}, {"smiles": "C[C@H](CCC(=O)NCC(=O)O)[C@H]1CC[C@H]2[C@@H]3CC[C@@H]4C[C@H](O)CC[C@]4(C)[C@H]3C[C@H](O)[C@]12C", "note": "[Glycodeoxycholic acid]", "nuclei count": 105}, {"smiles": "CN(C)CCCN1c2ccccc2CCc2ccc(Cl)cc21", "note": "[Clomipramine hydrochloride]", "nuclei count": "102 ± 1.2"}, {"smiles": "CO[C@@]1(NC(=O)C2SC(=C(C(N)=O)C(=O)O)S2)C(=O)N2C(C(=O)O)=C(CSc3nnnn3C)CS[C@@H]21", "note": "(some centres not stated) [Cefotetan]", "nuclei count": 102}, {"smiles": "CCN(CC)CCOC(=O)C1(c2ccc([N+](=O)[O-])cc2)CCCC1", "note": "[Nitrocaramiphen hydrochloride]", "nuclei count": "97.7 ± 5.5"}, {"smiles": "COc1cc(Br)c(S(=O)(=O)Nc2ccc(Cl)c(O[C@@H]3CCN(C)C3)c2)cc1OC", "nuclei count": 95.4}, {"smiles": "Clc1ccccc1CN1CCc2sccc2C1", "note": "[Ticlopidine hydrochloride]", "nuclei count": 102}, {"smiles": "Nc1ccc(O)c(C(=O)O)c1", "note": "[Mesalamine]", "nuclei count": 103}, {"smiles": "COc1ccc([C@@H]2CNC(=O)C2)cc1OC1CCCC1", "note": "[(R)-(-)-Rolipram]", "nuclei count": 96.2}, {"smiles": "NC(=O)c1ccc2nc(-c3ccc(Oc4ccc(Cl)cc4)cc3)[nH]c2c1", "nuclei count": 105}, {"smiles": "CC(=O)NCC(=O)N1[C@@H]2CC[C@H]1c1ccc(Nc3ncc(C(F)(F)F)c(NC4CCC4)n3)cc12", "nuclei count": 16.4}, {"smiles": "Nc1ccc(S(=O)(=O)Nc2ncccn2)cc1", "note": "[Sulfadiazine]", "nuclei count": 90.5}, {"smiles": "CC(C)[C@H](C(=O)Nc1ccc(C(=O)NO)cc1)c1ccccc1", "nuclei count": 29.3}, {"smiles": "C#C[C@]1(OC(C)=O)CC[C@H]2[C@@H]3CCC4=C[C@@H](OC(C)=O)CC[C@@H]4[C@H]3CC[C@@]21C", "note": "[Ethynodiol diacetate]", "nuclei count": "106.2 ± 0.54"}, {"smiles": "CCOC(=O)C=Cc1ccc(O)c(OC)c1", "note": "[Ferulic acid ethylester]", "nuclei count": 100}, {"smiles": "N[C@H]1CCN(O)C1=O", "nuclei count": 106}, {"smiles": "Nc1[nH]nc2nc3ccccc3nc12", "nuclei count": 98.5}, {"smiles": "C#C[C@]1(O)CC[C@H]2[C@@H]3CCC4=CC(=O)CC[C@@H]4[C@H]3CC[C@@]21C", "note": "[Norethindrone]", "nuclei count": 98.3}, {"smiles": "C#C[C@]1(O)CC[C@H]2[C@@H]3CCC4=CC(=O)CC[C@@H]4[C@H]3CC[C@@]21C", "note": "[Norethindrone (Norethisterone)]", "nuclei count": 99.7}, {"smiles": "Cc1cc2c(cc1C1(c3ccc(C(=O)O)cn3)CC1)C(C)(C)CCC2(C)C", "nuclei count": 102}, {"smiles": "C=CCc1cc(OC)c(O)c(C(=O)NCCO)c1", "note": "[Alibendol]", "nuclei count": 98.9}, {"smiles": "CO[C@@]1(NC(=O)C(C(=O)O)c2ccc(O)cc2)C(=O)N2C(C(=O)O)=C(CSc3nnnn3C)CO[C@@H]21", "note": "(some centres not stated) [Moxalactam disodium salt]", "nuclei count": 124}, {"smiles": "O=C(NC[C@H](O)CN1CCc2ccccc2C1)c1ccnc(NC2CCC2)c1", "nuclei count": 102}, {"smiles": "CN(CCc1ccc(Cl)c(Cl)c1)CC(O)COc1ccc(NS(C)(=O)=O)cc1", "note": "(configuration not stated)", "nuclei count": "108 and 95.8"}, {"smiles": "CO[C@H]1C[C@@H]2CC[C@@H](C)[C@@](O)(O2)C(=O)C(=O)N2CCCC[C@H]2C(=O)O[C@H]([C@H](C)C[C@@H]2CC[C@@H](O)[C@H](OC)C2)CC(=O)[C@H](C)/C=C(\\C)[C@@H](O)[C@@H](OC)C(=O)[C@H](C)C[C@H](C)/C=C/C=C/C=C/1C", "note": "[Rapamycin (Sirolimus)]", "nuclei count": "84.8 ± 10"}, {"smiles": "CO[C@H]1C[C@@H]2CC[C@@H](C)[C@@](O)(O2)C(=O)C(=O)N2CCCC[C@H]2C(=O)O[C@H]([C@H](C)C[C@@H]2CC[C@@H](O)[C@H](OC)C2)CC(=O)[C@H](C)/C=C(\\C)[C@@H](O)[C@@H](OC)C(=O)[C@H](C)C[C@H](C)/C=C/C=C/C=C/1C", "note": "[Rapamycin]", "nuclei count": 107}, {"smiles": "Cc1cccc(CCN2CCC(C(=O)c3ccc(NS(C)(=O)=O)cc3)CC2)n1", "note": "[E-4031 dihydrochloride]", "nuclei count": 94.5}, {"smiles": "N[C@@H]1CCCN(c2c(/C=C3\\SC(=O)NC3=O)cccc2-c2ccccc2)C1", "nuclei count": 93.5}, {"smiles": "Oc1ccc(Nc2nc(-c3ccc(Cl)cc3)cs2)cc1", "nuclei count": "78.2 ± 0.81"}, {"smiles": "N#Cc1ccc2[nH]c(O)c(-c3ccc(CN4CCOCC4)cn3)c2c1", "nuclei count": 82.8}, {"smiles": "COc1cc2ncnc(Nc3ccc(Cl)cc3F)c2cc1OC", "nuclei count": "91.6 and 100"}, {"smiles": "CCCCCCCCCCCCCCCC[N+](C)(C)CCN(Cc1ccc(OC)cc1)c1ncccn1", "note": "[Thonzonium bromide]", "nuclei count": 12.1}, {"smiles": "O=C(O)P(=O)(O)O", "note": "[Foscarnet Sodium]", "nuclei count": 102}, {"smiles": "CC(C)(C)NS(=O)(=O)c1cncc(-c2cc(F)c3nc(N)nn3c2)c1", "nuclei count": 98.4}, {"smiles": "CCN(CC)CCCC(C)Nc1c2ccc(Cl)cc2nc2ccc(OC)cc12", "note": "(configuration not stated) [Quinacrine dihydrochloride dihydrate]", "nuclei count": 12.9}, {"smiles": "Cc1[nH]c(/C=C2\\C(=O)Nc3ccccc32)c(C)c1CCC(=O)O", "nuclei count": "102 and 105"}, {"smiles": "CC(=O)N1CCN(c2ccc(OCC3COC(Cn4ccnc4)(c4ccc(Cl)cc4Cl)O3)cc2)CC1", "note": "(configuration not stated) [Ketoconazole]", "nuclei count": "83 ± 3.4"}, {"smiles": "CC1=C(C)C(=O)C(CCCCC#CCCCC#CCO)=C(C)C1=O", "nuclei count": 86.4}, {"smiles": "CC(C)NCC(O)c1ccc(NS(C)(=O)=O)cc1", "note": "(configuration not stated) [Sotalol hydrochloride]", "nuclei count": "108.9 ± 0.4"}, {"smiles": "C#C[C@]1(O)CC[C@H]2[C@@H]3CCc4cc(OC)ccc4[C@H]3CC[C@@]21C", "note": "[Ethynylestradiol 3-methyl ether]", "nuclei count": 105}, {"smiles": "C#C[C@]1(O)CC[C@H]2[C@@H]3CCc4cc(OC)ccc4[C@H]3CC[C@@]21C", "note": "[Mestranol]", "nuclei count": 97.9}, {"smiles": "C1=N/C2=N/c3ccc(OCCN4CCCC4)c(c3)COC/C=C/COCc3cccc(c3)C(=C1)N2", "note": "[Pacritinib (SB1518)]", "nuclei count": 16.7}, {"smiles": "COc1cc(C=O)ccc1O", "note": "[Vanillin]", "nuclei count": 102}, {"smiles": "COc1ccc2cccc(CCNC(C)=O)c2c1", "note": "[Agomelatine]", "nuclei count": 97.2}, {"smiles": "CN(C)CCCCSC(=N)N", "nuclei count": 103}, {"smiles": "CSc1cccc(Nc2ncc3cc(-c4c(Cl)cccc4Cl)c(=O)n(C)c3n2)c1", "nuclei count": 72.2}, {"smiles": "OCc1ccc(-c2ccc(-c3ccc(CO)s3)o2)s1", "nuclei count": 19.9}, {"smiles": "O=c1c(-c2ccc(O)cc2)coc2cc(O)cc(O)c12", "note": "[Genistein]", "nuclei count": "103 ± 6.6"}, {"smiles": "CCOC(=O)Nc1ccc2c(c1)N(C(=O)CCN1CCOCC1)c1ccccc1S2", "note": "[Moricizine hydrochloride]", "nuclei count": 108}, {"smiles": "C[C@H](NC(=O)Cc1cc(F)cc(F)c1)C(=O)N[C@@H]1C(=O)N(C)c2ccccc2-c2ccccc21", "nuclei count": 101}, {"smiles": "Clc1cc2c(NC3CCCC3)nnc(-c3ccncc3)c2cc1Cl", "nuclei count": 94.1}, {"smiles": "O=C(O)c1ccc(Nc2ncc3c(n2)-c2ccc(Cl)cc2C(c2c(F)cccc2F)=NC3)cc1", "nuclei count": "51.5 ± 2.5"}, {"smiles": "COc1cc2c(cc1OC)-c1cc3ccc(OC)c(OC)c3c[n+]1CC2", "note": "[Palmatine chloride]", "nuclei count": 110}, {"smiles": "COC(=O)[C@H]1[C@H]2C[C@@H]3c4[nH]c5cc(OC)ccc5c4CCN3C[C@H]2C[C@@H](OC(=O)c2cc(OC)c(OC)c(OC)c2)[C@@H]1OC", "note": "[Reserpine]", "nuclei count": "103 ± 4.7"}, {"smiles": "CNC(=C[N+](=O)[O-])NCCSCc1ccc(CN(C)C)o1", "note": "[Ranitidine hydrochloride]", "nuclei count": "97.5 ± 7.8"}, {"smiles": "C=CCc1ccc(O)c(-c2ccc(O)c(CC=C)c2)c1", "note": "[Honokiol]", "nuclei count": "102.37 ± 0.042"}]}]}
